For 39 compounds, cytotoxicity call and growth inhibition call results are on record in the antibiotic and cytotoxicity screens of Wong et al. (2023).

Molecules are shown by their SMILES. The list shows a part of the results.

The test system of one test is HSkMC. The experiment in a line: cytotoxicity call (relative viability < 0.9). Conditions: 10 µM.
A further test has as its system HepG2. The experiment in a line: cytotoxicity call (relative viability < 0.9). Conditions: 10 µM.
The test system of another test is S. aureus RN4220. The experiment in a line: growth inhibition call (relative growth <= 0.2). Conditions: 50 µM.

As for `C#Cc1ccc(C(=O)NO)s1`, the cytotoxicity call with HSkMC and with HepG2 was “inactive” throughout. For the same compound, the growth inhibition call in the test with S. aureus RN4220 was “inactive”.

For the compound `CS(=O)(=O)CCOC(=O)C1=CC(CCCO)=C[C@@H](c2ccc(CN3CCCC3)cc2)N(Cc2sc3ccccc3c2Cl)C=C1C(=O)OCCS(C)(=O)=O`, the cytotoxicity call in the test on HSkMC and in the test with HepG2 was “inactive” in each case. For the same compound, the growth inhibition call with S. aureus RN4220 was “active”.

On to `C[C@@H]1CN([C@@H](C)CO)C(=O)c2cc(NC(=O)Nc3ccc(C(F)(F)F)cc3)ccc2O[C@@H](C)CCCCO[C@@H]1CN(C)C(=O)C1CCCCC1`, for which the cytotoxicity call with HSkMC and in the test with HepG2 was “inactive” in each case. The growth inhibition call with S. aureus RN4220 is “inactive”.

As to `COc1cccc(S(=O)(=O)N[C@H]2CC[C@H](CCn3cc(-c4ccccc4OC)nn3)O[C@H]2CO)c1`, the cytotoxicity call in the test with HSkMC and with HepG2 was “inactive” throughout. Also, in the test with S. aureus RN4220, the growth inhibition call is “inactive”.

As to `CN[C@H]1[C@@H](O[C@H]2[C@@H](O[C@H]3[C@@H](O)[C@@H](O)[C@@H](NC(=N)N)[C@@H](O)[C@@H]3NC(=N)N)O[C@@H](C)[C@@]2(O)C=O)O[C@@H](CO)[C@@H](O)[C@@H]1O.CN[C@H]1[C@@H](O[C@H]2[C@@H](O[C@H]3[C@@H](O)[C@@H](O)[C@@H](NC(=N)N)[C@@H](O)[C@@H]3NC(=N)N)O[C@@H](C)[C@@]2(O)C=O)O[C@@H](CO)[C@@H](O)[C@@H]1O.O=S(=O)(O)O.O=S(=O)(O)O.O=S(=O)(O)O`, the cytotoxicity call in the test with HSkMC and in the test with HepG2 was “inactive” in each case. For the same compound, the growth inhibition call with S. aureus RN4220 was “inactive”.

As to `O=C(Cn1ccc([N+](=O)[O-])n1)n1cccn1`, the cytotoxicity call in the test with HSkMC and with HepG2 was “inactive” each time. For the same compound, the growth inhibition call with S. aureus RN4220 was “inactive”.

Take `C[C@H](CO)N1C[C@H](C)[C@H](CN(C)C(=O)Nc2ccc(C(F)(F)F)cc2)Oc2c(NS(C)(=O)=O)cccc2C1=O`: the cytotoxicity call with HSkMC and in the test with HepG2 was “inactive” throughout. For the same compound, the growth inhibition call with S. aureus RN4220 is “inactive”.

As to `O=C(Nc1cccc2ccccc12)c1ccc(C(F)(F)F)cc1`, the cytotoxicity call in the test on HSkMC and with HepG2 was “inactive” throughout. In addition, in the test on S. aureus RN4220, the growth inhibition call is “inactive”.

As to `C[C@@H]1CN([C@H](C)CO)C(=O)c2cc(NC(=O)Nc3ccccc3)ccc2O[C@@H](C)CCCCO[C@H]1CN(C)C(=O)NC1CCCCC1`, the cytotoxicity call with HSkMC is “inactive”. Further, in the test with HepG2, the cytotoxicity call is “active”. Moreover, the growth inhibition call in the test on S. aureus RN4220 was “inactive”.

As to `COc1ccc(NC(=O)Nc2ccc3c(c2)C(=O)N([C@@H](C)CO)C[C@H](C)[C@@H](CN(C)S(=O)(=O)c2ccc(F)cc2)OCCCC[C@H](C)O3)cc1`, the cytotoxicity call with HSkMC and in the test with HepG2 was “inactive” throughout. In the test with S. aureus RN4220, the growth inhibition call was “inactive”.

In the case of `C[C@@H]1CN([C@@H](C)CO)C(=O)c2cc(NC(=O)C3CCCCC3)ccc2O[C@@H]1CN(C)S(=O)(=O)c1cn(C)cn1`, the cytotoxicity call in the test with HSkMC and with HepG2 was “inactive” throughout. Moreover, the growth inhibition call with S. aureus RN4220 is “inactive”.

For the compound `C[C@H](CO)N1C[C@H](C)[C@H](CN(C)Cc2cccc(C(=O)O)c2)OCc2ccccc2-c2c(n(C)c3ccccc23)C1=O`, the cytotoxicity call in the test on HSkMC and in the test with HepG2 was “inactive” throughout. Moreover, in the test on S. aureus RN4220, the growth inhibition call is “inactive”.

Turning to `CCO[C@H]1OC(C(=O)N2CCN(C)CC2)=C[C@@H](c2ccc3c(c2)OCO3)[C@@H]1CCCOC(=O)NCCCCCC(=O)NO`, the cytotoxicity call in the test with HSkMC and in the test on HepG2 was “inactive” each time. Besides, the growth inhibition call in the test on S. aureus RN4220 was “inactive”.

Take `COc1cccc(-c2cn(CC[C@H]3CC[C@H](NC(=O)CN(C)C)[C@@H](CO)O3)nn2)c1`: the cytotoxicity call in the test on HSkMC and in the test on HepG2 was “inactive” throughout. Also, the growth inhibition call in the test on S. aureus RN4220 is “inactive”.

With `C[C@H](CO)N1C[C@H](C)[C@@H](CN(C)Cc2ccc(C(=O)O)cc2)OCCCC[C@H](C)Oc2ccc(NS(=O)(=O)c3cccs3)cc2C1=O`, the cytotoxicity call with HSkMC and in the test on HepG2 was “inactive” each time. Further, the growth inhibition call in the test on S. aureus RN4220 was “inactive”.

As to `C[C@@H]1CCCCO[C@@H](CN(C)C(=O)NC2CCCCC2)[C@H](C)CN([C@@H](C)CO)C(=O)c2cc(NC(=O)C3CCCCC3)ccc2O1`, the cytotoxicity call with HSkMC and in the test on HepG2 was “inactive” throughout. Further, the growth inhibition call in the test on S. aureus RN4220 was “inactive”.

Take `COc1ccc(S(=O)(=O)N(C)C[C@@H]2Oc3ccc(NS(=O)(=O)c4ccc(C)cc4)cc3CC(=O)N([C@@H](C)CO)C[C@H]2C)cc1`: the cytotoxicity call with HSkMC and with HepG2 was “inactive” throughout. Also, in the test with S. aureus RN4220, the growth inhibition call was “inactive”.

For the compound `O=C(CN1C(=O)c2ccccc2C1=O)N1CCNCC1`, the cytotoxicity call in the test on HSkMC and in the test on HepG2 was “inactive” each time. In addition, the growth inhibition call in the test on S. aureus RN4220 is “inactive”.

With `COc1ccc(S(=O)(=O)Nc2ccc3c(c2)C(=O)N([C@H](C)CO)C[C@H](C)[C@@H](CN(C)S(=O)(=O)c2cn(C)cn2)O3)cc1`, the cytotoxicity call in the test on HSkMC and in the test with HepG2 was “inactive” in each case. Moreover, the growth inhibition call in the test on S. aureus RN4220 was “inactive”.

Take `C[C@@H]1CN([C@@H](C)CO)C(=O)CCCn2nncc2CO[C@@H]1CN(C)C(=O)Nc1cccc(Oc2ccccn2)c1`: the cytotoxicity call in the test on HSkMC and in the test with HepG2 was “inactive” throughout. Moreover, in the test on S. aureus RN4220, the growth inhibition call is “inactive”.

For the compound `C[C@H](CO)N1C[C@H](C)[C@@H](CN(C)Cc2ccccc2)OCCCC[C@H](C)Oc2ccc(NC(=O)Cc3ccccc3)cc2C1=O`, the cytotoxicity call in the test with HSkMC and in the test on HepG2 was “inactive” throughout. The growth inhibition call with S. aureus RN4220 is “inactive”.

Regarding `COc1ccc(S(=O)(=O)N(C)C[C@H]2Oc3ccc(NS(=O)(=O)c4ccc(F)cc4)cc3CC(=O)N([C@@H](C)CO)C[C@@H]2C)cc1`, the cytotoxicity call in the test with HSkMC and with HepG2 was “inactive” throughout. Also, the growth inhibition call in the test with S. aureus RN4220 was “inactive”.

With `O=C(CN1CCOCC1)N[C@H]1CC[C@H](CCNC(=O)C2CCCCC2)O[C@@H]1CO`, the cytotoxicity call in the test with HSkMC and with HepG2 was “inactive” each time. Besides, the growth inhibition call in the test on S. aureus RN4220 was “inactive”.

For `Cc1ccc(S(=O)(=O)N(C)C[C@H]2Oc3ccc(NC(=O)CCN4CCOCC4)cc3CC(=O)N([C@@H](C)CO)C[C@@H]2C)cc1`, the cytotoxicity call with HSkMC and with HepG2 was “inactive” throughout. Moreover, in the test with S. aureus RN4220, the growth inhibition call is “inactive”.

Take `CC(=O)Oc1cncc(C(=O)O)c1`: the cytotoxicity call in the test on HSkMC and in the test on HepG2 was “inactive” throughout. For the same compound, the growth inhibition call in the test on S. aureus RN4220 was “inactive”.

Turning to `Cn1cnc(S(=O)(=O)N[C@H]2CC[C@H](CC(=O)N3CCN(c4ccccc4)CC3)O[C@H]2CO)c1`, the cytotoxicity call in the test with HSkMC and in the test with HepG2 was “inactive” each time. For the same compound, the growth inhibition call with S. aureus RN4220 was “inactive”.

For the compound `COc1ccc(NC(=O)Nc2ccc3c(c2)CC(=O)N([C@@H](C)CO)C[C@@H](C)[C@@H](CN(C)Cc2ccc(C(=O)Nc4ccccc4N)cc2)O3)cc1`, the cytotoxicity call in the test on HSkMC and in the test on HepG2 was “inactive” throughout. The growth inhibition call in the test on S. aureus RN4220 was “inactive”.

Turning to `O=C(C[C@H]1CC[C@@H]2[C@H](COC[C@@H](O)CN2C(=O)Nc2cccc(F)c2)O1)NCc1ccccc1Cl`, the cytotoxicity call in the test on HSkMC and in the test with HepG2 was “inactive” throughout. Further, in the test with S. aureus RN4220, the growth inhibition call is “inactive”.

As for `CC(C)CC#Cc1cnc2c(c1)C(=O)N([C@@H](C)CO)C[C@H](C)[C@@H](CN(C)S(=O)(=O)c1cn(C)cn1)O2`, the cytotoxicity call in the test with HSkMC and with HepG2 was “inactive” in each case. The growth inhibition call with S. aureus RN4220 was “inactive”.

On to `C[C@@H]1CN([C@H](C)CO)C(=O)c2cc(NC(=O)Nc3cccc4ccccc34)ccc2O[C@@H](C)CCCCO[C@@H]1CN(C)S(=O)(=O)c1ccc(F)cc1`, for which the cytotoxicity call in the test with HSkMC and in the test with HepG2 was “inactive” in each case. Besides, the growth inhibition call in the test with S. aureus RN4220 was “inactive”.

Regarding `C[C@@H]1CN([C@@H](C)CO)C(=O)c2cccc(NC(=O)c3ccc(-c4nccs4)cc3)c2O[C@H]1CN(C)Cc1ccc2c(c1)OCO2`, the cytotoxicity call with HSkMC and in the test with HepG2 was “inactive” throughout. Moreover, the growth inhibition call with S. aureus RN4220 was “inactive”.

`C[C@@H]1CN([C@H](C)CO)C(=O)c2cc(NC(=O)Nc3ccc(C(F)(F)F)cc3)ccc2O[C@H]1CN(C)S(=O)(=O)c1ccc(Cl)cc1`: the cytotoxicity call in the test with HSkMC is “inactive”. Moreover, the cytotoxicity call in the test on HepG2 is “active”. Also, in the test on S. aureus RN4220, the growth inhibition call was “inactive”.

As to `N=C(CN1CCCCC1)NO`, the cytotoxicity call in the test with HSkMC and in the test on HepG2 was “inactive” throughout. Further, the growth inhibition call in the test on S. aureus RN4220 was “inactive”.

On to `C[C@H](CO)N1C[C@H](C)[C@@H](CN(C)S(=O)(=O)c2ccc(F)cc2)Oc2ccc(NS(C)(=O)=O)cc2C1=O`, for which the cytotoxicity call in the test with HSkMC and in the test with HepG2 was “inactive” in each case. Also, in the test with S. aureus RN4220, the growth inhibition call is “inactive”.

As for `C[C@H](CO)N1C[C@H](C)[C@@H](CN(C)S(=O)(=O)c2ccc(Cl)cc2)Oc2ccc(NC(=O)C3CC3)cc2C1=O`, the cytotoxicity call in the test on HSkMC and with HepG2 was “inactive” each time. For the same compound, the growth inhibition call in the test on S. aureus RN4220 was “inactive”.

On to `C=CCNC(N)=S`, for which the cytotoxicity call in the test with HSkMC and in the test with HepG2 was “inactive” in each case. The growth inhibition call in the test with S. aureus RN4220 is “inactive”.

Consider `COC(=O)c1ccc(C(=O)OC)c(N)c1`, for which the cytotoxicity call in the test with HSkMC and in the test with HepG2 was “inactive” in each case. The growth inhibition call with S. aureus RN4220 is “inactive”.

For `O=C1OCCC=C[C@H]2O[C@@]34C=CCN(Cn5nnc6ccccc65)C(=O)[C@H]3N(CCCCCO)C(=O)[C@@H]4[C@@H]12`, the cytotoxicity call in the test on HSkMC and with HepG2 was “inactive” in each case. Further, the growth inhibition call in the test on S. aureus RN4220 is “inactive”.

Regarding `C[C@H]1CN([C@@H](C)CO)C(=O)c2cccc(NC(=O)Nc3ccc4c(c3)OCO4)c2O[C@@H]1CN(C)C(=O)Nc1cccc2ccccc12`, the cytotoxicity call in the test on HSkMC (human skeletal muscle cells) and with HepG2 was “inactive” throughout. In the test with S. aureus RN4220, the growth inhibition call was “inactive”.
